Experimental data reported in patent US11123439B2, “Antibody drug conjugates (ADCS) and antibody prodrug conjugates (APDCS) with enzymatically cleavable groups” (Bayer Pharma Aktiengesellschaft, priority 2015, dated 2021).

Molecular target: TWEAKR (Homo sapiens, UniProt Q9NP84)
Assay: Agonistic activity of anti-TWEAKR antibodies (NFκB reporter gene assay)
Type: cell-based
Details: all 11 antibodies identified (human IgG1)
From the text: 11 different Fab phages were identified, and the corresponding antibodies were cloned into a mammalian EgG expression vector which provides the CH2-CH3 domains missing in the soluble FAb. Following identification of preferred antibodies, these were expressed as full-length IgGs. Aglycosylated variants of the antibodies described have been produced by introducing the mutations N297A or N297Q in the heavy chain of the respective antibodies. These constructs were expressed, for example, transiently in mammalian cells as described by Tom et al., Chapter 12 in Methods Express: Expression Systems edited by Micheal R. Dyson and Yves Durocher, Scion Publishing Ltd, 2007 (see AK-Example 1). The antibodies were purified by protein-A chromatography and characterized further by their binding affinity to soluble monomeric TWEAKR using ELISA and BIAcore analysis, as described in AK-Example 2. To determine the cell binding characteristics of the anti-TWEAKR antibodies, binding was tested by flow cytometry on a number of cell lines (HT29, HS68, HS578). NFκB reporter gene assays were carried out to examine the agonistic activity of all 11 antibodies identified (human IgG1). […] Lastly, 7 variants were selected on the basis of the elevated affinity compared to the best single substitution variant G102T. […]

B1: TPP-883: anti-TWEAKR antibody from phage library; "The antibody having the highest in vitro activity (TPP-883) was selected for further activity and affinity maturation" (antibody, listed as Homo Sapiens)
heavy: EVQLLESGGGLVQPGGSLRLSCAASGFTFSPYPMMWVRQAPGKGLEWVSYISPSGGKTHYADSVKGRFTISRDNSKNTLYLQMNSLRAEDTAVYYCARGGDGYFDYFDYWGQGTLVTVSSASTKGPSVFPLAPSSKSTSGGTAALGCLVKDYFPEPVTVSWNSGALTSGVHTFPAVLQSSGLYSLSSVVTVPSSSLGTQTYICNVNHKPSNTKVDKRV[skipping human IgG1 Fc]
light: AQDIQMTQSPATLSASVGDRVTITCRASQSISSYLNWYQQKPGKAPKLLIYAASSLQSGVPSRFSGSGSGTDFTLTISSLQPEDFATYYCQQSYSSPGITFGPGTKVEIKRTVAAPSVFIFPPSDEQLKSGTASVVCLLNNFYPREAKVQWKVDNALQSGNSQESVTEQDSKDSTYSLSSTLTLSKADYEKHKLYACEVTHQGLSSPVTKSFNRGEC
  in vitro activity (agonistic activity): highest in vitro activity
